Patent US10233255B2, “Antibody therapeutics that bind STAT3” (Sorrento Therapeutics, Inc., priority 2016, dated 2019)

Target: STAT3 (Homo sapiens, UniProt P40763)
Assay: Cell binding assay on fixed, permeabilized human cells (PE anti-human IgG, flow cytometry)
Set-up: endogenous in cells; host or cells: MDA-MB-468 (also given as MDA-MB-435), U251, HeLa
Method: Next, the binding of the candidate anti-STAT3 antibodies to cellular targets was tested in cell binding assays using MDA-MB-435 breast cancer cells and U251 cells. The cells were seeded overnight in a 96 well plate, then fixed with PFA and permeabilized with methanol. Cells were incubated with serial dilutions of the anti-STAT3 antibody candidates ST1A5, ST3G12 and ST5G12 for one hour and 30 minutes. Following incubation, the cells were washed and incubated for 30 minutes with phycoerythrin (PE) conjugated anti-human IgG. Fluorescence was measured on an Intellicyte high-throughput flow cytometry analyzer. […] Bevacizumab (Avastin), a monoclonal antibody that inhibits vascular endothelial growth factor A (VEGF-A) was used as a negative control.
An isotype control was used as a negative control. The experimental procedure was the same as described above for FIGS. 3A and 3B.

STAT3, sequence (P40763 whole entry): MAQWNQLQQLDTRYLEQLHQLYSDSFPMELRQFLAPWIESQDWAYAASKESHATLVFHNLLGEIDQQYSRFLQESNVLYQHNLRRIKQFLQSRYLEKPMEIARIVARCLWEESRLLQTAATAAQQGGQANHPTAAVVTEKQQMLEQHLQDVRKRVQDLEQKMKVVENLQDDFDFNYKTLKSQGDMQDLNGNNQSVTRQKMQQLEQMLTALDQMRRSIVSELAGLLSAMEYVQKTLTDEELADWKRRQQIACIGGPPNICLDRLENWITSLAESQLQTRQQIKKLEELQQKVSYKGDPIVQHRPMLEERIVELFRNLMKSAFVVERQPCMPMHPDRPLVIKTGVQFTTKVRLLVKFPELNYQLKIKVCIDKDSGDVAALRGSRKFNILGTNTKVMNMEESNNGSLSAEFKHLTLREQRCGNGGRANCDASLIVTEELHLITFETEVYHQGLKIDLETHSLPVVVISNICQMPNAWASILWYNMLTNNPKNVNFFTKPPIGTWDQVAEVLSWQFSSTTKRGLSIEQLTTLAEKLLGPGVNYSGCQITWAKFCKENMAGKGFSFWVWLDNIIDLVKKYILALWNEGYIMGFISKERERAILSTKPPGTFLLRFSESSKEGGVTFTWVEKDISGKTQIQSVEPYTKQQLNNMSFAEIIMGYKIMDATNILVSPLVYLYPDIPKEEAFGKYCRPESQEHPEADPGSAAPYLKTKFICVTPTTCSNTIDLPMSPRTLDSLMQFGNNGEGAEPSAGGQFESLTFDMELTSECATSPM

STAT3 binding in MDA-MB-468 cells (MDA-MB-468 cells, FIG. 3A): did not show strong STAT3 binding
STAT3 binding in U251 cells (U251 cells, FIG. 3B / 3C): did not show strong STAT3 binding
B1: ST1A5: fully human anti-STAT3 antibody, heavy/light chain variable domains SEQ ID NO. 1/SEQ ID NO. 2 (antibody, V domains shown)
VH: [about 100 residues left out here]DGGLGWGTYFRLGDAFDIWGQGTMVTVSS
VL: QSVLTQPPSVSKGLRQTATLTCTGNSNNVGNEGAAWLQQHQGHPPKLLSYRNFNRPSGISERFSASRSGNTASLTITGLQPEDEADYYCSAWDSSLSAWVFGGGTKLTVL
